According to the antibiotic and cytotoxicity screens of Wong et al. (2023):
Some of the results follow.

Test system: HepG2
Test: cytotoxicity call (relative viability < 0.9)
Settings: 10 µM

| Compound | cytotoxicity call |
| --- | --- |
| C[C@@H]1CN([C@H](C)CO)C(=O)Cc2cc(NC(=O)C3CC3)ccc2O[C@H]1CN(C)Cc1ccc(Oc2ccccc2)cc1 | inactive |
| O=C1C[C@]2(c3ccc([N+](=O)[O-])cc3)C(=O)N(CCN3CCOCC3)c3cc(CO)ccc3[C@H]2N1C1CCCCC1 | inactive |
| Cc1noc(C)c1S(=O)(=O)Nc1ccc2c(c1)CC(=O)N([C@H](C)CO)C[C@H](C)[C@H](CN(C)Cc1ccccc1)O2 | inactive |
| COc1ccc(NC(=O)N(C)C[C@H]2OCCCC[C@H](C)Oc3ccc(NC(=O)C4CCCCC4)cc3C(=O)N([C@H](C)CO)C[C@@H]2C)cc1 | inactive |
| O=C(C[C@H]1C[C@H]2c3cc(NC(=O)Cc4ccncc4)ccc3O[C@H]2[C@H](CO)O1)NCc1cccc(F)c1 | inactive |
| Cc1ccc(C(N)=O)cc1N | inactive |
| COc1ccc(NC(=O)Nc2ccc3c(c2)C(=O)N([C@H](C)CO)C[C@@H](C)[C@H](CN(C)Cc2ccc(C(F)(F)F)cc2)O3)cc1 | active |
| NS(=O)(=O)c1cc2c(cc1Cl)N=C(CSCc1ccccc1)NS2(=O)=O | inactive |
| O=S(=O)(C1CCCCC1)C1CNC1 | inactive |
| C[C@@H]1CN([C@@H](C)CO)C(=O)c2cc(NC(=O)c3ccccc3)ccc2O[C@@H](C)CCCCO[C@@H]1CN(C)Cc1ccc(C(=O)O)cc1 | inactive |
| C[C@H](CO)N1C[C@H](C)[C@H](CN(C)S(=O)(=O)c2cn(C)cn2)OCc2cn(nn2)CCCC1=O | inactive |
| O=C(C[C@@H]1CC[C@@H]2[C@H](COC[C@H](O)CN2S(=O)(=O)c2ccccc2)O1)N[C@H]1CCN(Cc2ccccc2)C1 | inactive |
